# This is one part of the list. Values were computed here from the reads of four pooled replicates and scatter widely.
# Target: T1, Pho4 (S. cerevisiae) (UniProt P07270)
# T1 sequence: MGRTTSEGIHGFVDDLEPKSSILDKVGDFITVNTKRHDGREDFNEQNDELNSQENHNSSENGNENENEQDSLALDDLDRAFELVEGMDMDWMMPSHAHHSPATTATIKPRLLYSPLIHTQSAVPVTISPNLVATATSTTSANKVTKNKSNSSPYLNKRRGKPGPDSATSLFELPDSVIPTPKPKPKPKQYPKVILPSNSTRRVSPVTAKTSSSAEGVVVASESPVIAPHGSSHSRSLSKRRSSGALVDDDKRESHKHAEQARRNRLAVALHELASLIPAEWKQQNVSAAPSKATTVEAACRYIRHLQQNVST
# Assay: relative binding free energy (BET-seq); higher = weaker binding
# Details: reference: library average
row,Sequence,relative binding free energy
1,GTTGGCACGTGCAGTA,-0.2 kcal/mol
2,AGGTCCACGTGAAGGG,0.19 kcal/mol
3,TGTTCCACGTGAAGTG,0.29 kcal/mol
4,GCATGCACGTGATGTG,0.18 kcal/mol
5,GGGAGCACGTGCTGGT,-0.1 kcal/mol
6,TAATTCACGTGCAGGG,0.23 kcal/mol
7,TCTATCACGTGGGTGA,-0.01 kcal/mol
8,ATTTACACGTGAGAAT,0.26 kcal/mol
9,GGGTACACGTGACAGG,0.23 kcal/mol
10,TTATGCACGTGCGTTA,-0.06 kcal/mol
11,TATAGCACGTGGTGGT,-0.12 kcal/mol
12,TGGCTCACGTGAAGTG,0.37 kcal/mol
13,GATGTCACGTGGAAGG,0.32 kcal/mol
14,GGGAGCACGTGAGAGG,0.2 kcal/mol
15,CAGGGCACGTGGGTCA,-0.17 kcal/mol
16,ATGGACACGTGGTTGT,-0.02 kcal/mol
17,ATTTTCACGTGAATAA,0.27 kcal/mol
18,GAGCACACGTGGGGGC,0.09 kcal/mol
19,TGTTGCACGTGTAATA,0.04 kcal/mol
20,GGGATCACGTGGACAG,0.33 kcal/mol
21,TCTTACACGTGAATTT,0.44 kcal/mol
22,TTGTGCACGTGGTCAA,-0.23 kcal/mol
23,CTGATCACGTGTGAGG,0.16 kcal/mol
24,AGTCTCACGTGGGTAG,0.02 kcal/mol
25,GGAAACACGTGGGGGG,-0.05 kcal/mol

row,Sequence,relative binding free energy
1,ATGATCACGTGTGTAG,0.18 kcal/mol
2,GTTTACACGTGTTGTA,0.19 kcal/mol
3,TGCGGCACGTGTAAGG,0.02 kcal/mol
4,GTCTGCACGTGAAGGA,0.35 kcal/mol
5,TATGACACGTGTGTCT,-0.02 kcal/mol
6,TGATGCACGTGGACTG,0.05 kcal/mol
7,TGTTGCACGTGTTTAG,-0.08 kcal/mol
8,ACGTACACGTGTGGGT,0.1 kcal/mol
9,AGAGGCACGTGAAGGC,0.12 kcal/mol
10,GTTCGCACGTGGAGGT,-0.03 kcal/mol
11,GAGTGCACGTGGCGTG,-0.06 kcal/mol
12,TATTGCACGTGACGGA,0.05 kcal/mol
13,TGTGTCACGTGAATGT,0.21 kcal/mol
14,TTGCGCACGTGCTGTA,-0.14 kcal/mol
15,CAGTTCACGTGGTGTA,0.17 kcal/mol
16,GGCGACACGTGTTGGA,0.32 kcal/mol
17,CTGGGCACGTGTACGT,0.07 kcal/mol
18,TGTCTCACGTGGCGTG,-0.07 kcal/mol
19,GTTGGCACGTGAGTTT,0.15 kcal/mol
20,GTTACCACGTGGTTTG,0 kcal/mol
21,GTGATCACGTGATCGT,0.27 kcal/mol
22,TGTAGCACGTGATTAA,-0.03 kcal/mol
23,TTGCTCACGTGTCTGG,0.3 kcal/mol
24,ATAGTCACGTGGAGTC,0.22 kcal/mol
25,TCAGGCACGTGGGGTA,-0.27 kcal/mol

row,Sequence,relative binding free energy
1,TGGTTCACGTGATCAT,0.22 kcal/mol
2,GGTCGCACGTGTAGGA,0.04 kcal/mol
3,TTGTCCACGTGGGAGT,-0.18 kcal/mol
4,TAATCCACGTGTTATG,0.2 kcal/mol
5,TATAGCACGTGCGTGG,-0.07 kcal/mol
6,CGCGTCACGTGGGTGT,-0.1 kcal/mol
7,TATTCCACGTGGGGGG,-0.05 kcal/mol
8,GTTTTCACGTGCATGT,0.24 kcal/mol
9,GTATTCACGTGGGGAG,0.17 kcal/mol
10,TTGGGCACGTGTAAGG,0.09 kcal/mol
11,GAGTACACGTGGCGGT,0.12 kcal/mol
12,AAGTGCACGTGTGTTA,-0.07 kcal/mol
13,GCAGGCACGTGGGTCG,-0.29 kcal/mol
14,TTATTCACGTGTTCAA,0.12 kcal/mol
15,TATGTCACGTGAGGGT,0.31 kcal/mol
16,CTGTTCACGTGGGAGA,0.14 kcal/mol
17,TTTAACACGTGCGTAT,-0.09 kcal/mol
18,ATTGCCACGTGGGGCT,-0.2 kcal/mol
19,AACGTCACGTGTTGGT,0 kcal/mol
20,TAGGTCACGTGGGGAC,0.06 kcal/mol
21,GATTTCACGTGCTAGG,0.21 kcal/mol
22,CGGGACACGTGAGGAT,0.25 kcal/mol
23,TTCAGCACGTGGCGTT,-0.21 kcal/mol
24,TCGGTCACGTGGGGTA,-0.09 kcal/mol
25,TTATTCACGTGGTCAT,0.28 kcal/mol

row,Sequence,relative binding free energy
1,TGCTTCACGTGAGGGC,0.44 kcal/mol
2,GGGGGCACGTGAATGG,0.19 kcal/mol
3,TTGCTCACGTGTAGAG,0.34 kcal/mol
4,TAAGCCACGTGTTGGT,-0.09 kcal/mol
5,GGGGGCACGTGTAGGA,-0.05 kcal/mol
6,TTCGTCACGTGTTTAT,0.09 kcal/mol
7,AGGGTCACGTGTGGAG,0.13 kcal/mol
8,TTAGACACGTGTTAAA,0.18 kcal/mol
9,ATTTGCACGTGTGATT,0.16 kcal/mol
10,TTTAACACGTGATGAT,0.19 kcal/mol
11,AGGGTCACGTGTGAAA,0.25 kcal/mol
12,TTCGGCACGTGCGGTG,-0.19 kcal/mol
13,TTGCTCACGTGGGAAT,0.16 kcal/mol
14,AGCTTCACGTGGTGCG,0.18 kcal/mol
15,TTAATCACGTGTAAGT,0.21 kcal/mol
16,AAGTGCACGTGGTATT,-0.13 kcal/mol
17,GGTGTCACGTGTAAGC,0.23 kcal/mol
18,GAAGGCACGTGGTGGC,-0.24 kcal/mol
19,CGGCGCACGTGTTGTT,-0.12 kcal/mol
20,TTTTACACGTGCATTA,0.03 kcal/mol
21,CGGTACACGTGAAAGT,0.44 kcal/mol
22,AAGTTCACGTGTTTTG,0.25 kcal/mol
23,CTATTCACGTGAGTGG,0.33 kcal/mol
24,ATATGCACGTGGGGGC,-0.18 kcal/mol
25,GTCATCACGTGTTGTG,0.1 kcal/mol

row,Sequence,relative binding free energy
1,AAGTGCACGTGTGGCA,-0.04 kcal/mol
2,GGTCTCACGTGGTGAT,0.24 kcal/mol
3,GACGTCACGTGGGATG,0.1 kcal/mol
4,GATGGCACGTGTATGT,0 kcal/mol
5,TGGGGCACGTGCGAGG,-0.2 kcal/mol
6,ATAATCACGTGGAATG,0.08 kcal/mol
7,GGAGTCACGTGAGAGC,0.29 kcal/mol
8,GGAATCACGTGCAGGG,0.07 kcal/mol
9,GCACGCACGTGGGGGG,-0.28 kcal/mol
10,TGTTGCACGTGATTAT,0.1 kcal/mol
11,GGTATCACGTGTTTTT,0.17 kcal/mol
12,AGGGACACGTGTCTTG,0.12 kcal/mol
13,TGTGGCACGTGCTAGG,-0.03 kcal/mol
14,ATGTGCACGTGTTCAA,-0.1 kcal/mol
15,TTATGCACGTGATTCG,-0.07 kcal/mol
16,ACGGCCACGTGGTGTT,-0.16 kcal/mol
17,TTAGACACGTGGGACT,0 kcal/mol
18,TAGGTCACGTGATTCA,0.25 kcal/mol
19,AACGGCACGTGCGGGG,-0.25 kcal/mol
20,ATGTACACGTGAGGGG,0.29 kcal/mol
21,TGTCTCACGTGTTATG,0.2 kcal/mol
22,GTTGGCACGTGCAATG,-0.07 kcal/mol
23,TGGGGCACGTGGCACT,-0.13 kcal/mol
24,GGTGGCACGTGTGGAC,0.05 kcal/mol
25,GATGTCACGTGACGGG,0.29 kcal/mol

row,Sequence,relative binding free energy
1,AGTAGCACGTGTTGTG,-0.02 kcal/mol
2,TTTACCACGTGTGATT,-0.06 kcal/mol
3,CGGGTCACGTGTCGGG,0.12 kcal/mol
4,GTCTGCACGTGGTTCT,-0.02 kcal/mol
5,GAAGACACGTGGTTGT,0.04 kcal/mol
6,TGTACCACGTGAGGGG,0.08 kcal/mol
7,GTTGGCACGTGGGTCG,-0.2 kcal/mol
8,TACAGCACGTGAGGGT,0.1 kcal/mol
9,TGGTTCACGTGAACGT,0.23 kcal/mol
10,TGAGGCACGTGCGGGA,-0.18 kcal/mol
11,TTAAGCACGTGGCCGG,-0.09 kcal/mol
12,GGTCTCACGTGTACGG,0.17 kcal/mol
13,TGAAGCACGTGAGATG,0.23 kcal/mol
14,CTTTGCACGTGTAGTT,0.04 kcal/mol
15,TGAGGCACGTGTAGTA,-0.01 kcal/mol
16,CGGTTCACGTGTTGCA,0.22 kcal/mol
17,TGGTCCACGTGTGCGG,-0.01 kcal/mol
18,GGATGCACGTGGAGTC,0.09 kcal/mol
19,TATGTCACGTGTGGCA,-0.07 kcal/mol
20,TGAGGCACGTGAACGT,-0.04 kcal/mol
21,TGGTACACGTGGCCGG,-0.14 kcal/mol
